Measured values reported in patent US20220288226A1 (ENOSI LIFE SCIENCES, published 2022).

Target: T1, extracellular domain of TNFR-1 (human, UniProt P19438 30-211)
T1 construct: The construct limits, tag, supplier and species are not restated there; also called TNFR1 extracellular domain; tumor necrosis factor receptor-1 (TNFR1)
T1 sequence: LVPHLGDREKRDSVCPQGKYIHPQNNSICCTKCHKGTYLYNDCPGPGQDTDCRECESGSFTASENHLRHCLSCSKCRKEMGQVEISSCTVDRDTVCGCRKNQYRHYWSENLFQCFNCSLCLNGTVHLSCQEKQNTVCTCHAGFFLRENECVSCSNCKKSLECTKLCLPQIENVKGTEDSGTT
Assay: SPR (Biacore), Vhh on TNFR1 extracellular domain
Protocol: Each of Vhh 1-4 subsequently was tested in binding studies using the surface plasmon resonance (SPR) method (Sciences GL. Biacore Assay Handbook. General Electric Company (2012); and Richter et al. (2019) MAbs 11:166-177). Competition assays of Vhh inhibition of TNF-a binding to TNFR1 extracellular domain also were performed as described in Richter et al. (2019).

- Kd: 0.43 nM
B1: Vhh-1 (VHH)
VHH: EVQLLESGGGLVQPGGSLRLSCAASGFTFDKYSMGWVRQAPGKGLEWVSQISDTADRTYYAH[left out - about 20 residues]MNSLRAEDTAVYYCAIYTGRWVPFEYWGQGTLVTVSS
notes: also called DOM1h-574-208; Recombinant human anti-TNFRSF1A single domain antibody
